Out of some 150,000 compounds screened, about 540 (0.36%) showed an effect of 50% or more. Some of the results follow.
What follows are compounds tested on Plasmodium falciparum (assay: Primary screen in NF54 nanoGlo assay, in single point, at 2uM, 72h; a lower Z score goes with more inhibition). Settings: timepoint 72 hour.
Assay type: functional, Erythrocyte
For `NS(=O)(=O)c1ccc(CNC(=O)c2cc(-c3cccnc3)nc3ccccc23)cc1`, the “% Inhibition” value was -5% and the Z score was 0.81.
In the case of `Cn1ccnc1-c1nnc(NS(=O)(=O)c2ccc(Cl)cc2)o1`, the “% Inhibition” value is reported as -4% and the Z score is reported as 0.48.
For `Cc1ccc(N2CCN(C(=O)c3cc4n(n3)C[C@@H](c3ccc(Cl)cc3)OC4)CC2)cc1`, the “% Inhibition” value was -3% and the Z score was 0.43.
For `CC(C)N1C(=O)CN(CN2CCC[C@H]2c2ccsc2)C1=O`, the “% Inhibition” value was -11% and the Z score was 1.57.
`CCO[C@H]1COC[C@@H]1NC(=O)c1cc(OC)ccn1` was tested, and the “% Inhibition” value was 6% and the Z score was -0.71.
For `NC(=O)CCN1CCc2onc(-c3cccc4ccccc34)c2C1`, the “% Inhibition” value was 16% and the Z score was -2.14.
`COc1ccc(OC)c(-c2cc(-c3cccnc3)c(C#N)c(N)n2)c1` was tested, and the “% Inhibition” value was 3% and the Z score was -0.38.
With `O=C1NC(c2ccccc2)=NC12CCN(Cc1c(F)cccc1F)CC2` the “% Inhibition” value was 40% and the Z score was -4.56.
`COc1ccc(C(=O)N2CC[C@H]3NC(=O)N(c4ccc(Oc5ccccc5)cc4)C(=O)[C@H]32)cc1` was tested, and the “% Inhibition” value was 34% and the Z score was -3.88.
For `O=C(Cc1csc(-c2ccoc2)n1)N1CCC[C@@H]1CO`, the “% Inhibition” value was -16% and the Z score was 1.78.
In the case of `Cc1ccc2c(c1)c(C(=O)N[C@@H]1[C@@H]3CCO[C@@H]3[C@H]1N(C)C)nn2C`, the “% Inhibition” value is reported as -20% and the Z score is reported as 2.92.
For `CC(C)CC(C)CC(=O)Oc1ccc(CC2NC(=O)NC2=O)cc1` (stereo unspecified), the “% Inhibition” value was -1% and the Z score was 0.09.
With `CCC(NC(=O)c1cc(Cl)cn1C)C(O)C(F)(F)F` (stereo unspecified) the “% Inhibition” value was -15% and the Z score was 1.35.
In the case of `COC(=O)[C@H]1CCc2nnc(COc3cc(C)ccc3C(C)C)n2C1`, the “% Inhibition” value is reported as -15% and the Z score is reported as 2.39.
For `Cc1nc2ccc(NC(=O)c3cnccn3)cc2s1`, the “% Inhibition” value was -4% and the Z score was 0.32.
For `Cn1cc([C@@](C)(O)CNC(=O)NCc2ccc3c(c2)CCC3)cn1`, the “% Inhibition” value was -6% and the Z score was 0.71.
`c1cnc(N2CCOCC2)c(CN[C@H]2CCOCC23CCCCC3)c1` was tested, and the “% Inhibition” value was -8% and the Z score was 1.34.
`CCNC(N)=NCCc1ccc2[nH]ccc2c1` was tested, and the “% Inhibition” value was -9% and the Z score was 0.99.
With `COc1ccc(-c2cc(C(=O)NCCc3ccccc3)c3c(-c4ccc(Cl)cc4)[nH]nc3n2)cc1` the “% Inhibition” value was -5% and the Z score was 0.69.
`Cc1cnc(C)c(NCC(C)N2CCOCC2C)n1` (stereo unspecified) was tested, and the “% Inhibition” value was -12% and the Z score was 1.34.
For `CN1CCCN(c2ccc(CNC(=O)c3cnn(Cc4ccccc4)c3)cn2)CC1`, the “% Inhibition” value was -9% and the Z score was 1.45.
`Cc1cc2[nH]c(C(=O)Nc3ccc(F)c(F)c3)c(CN3CCOCC3)c2s1` was tested, and the “% Inhibition” value was -11% and the Z score was 1.05.
For `N#CCc1ccc(Br)c(Cl)c1`, the “% Inhibition” value was -10% and the Z score was 1.51.
With `O=C(Nc1ccc(F)c(Cl)c1)C1C2CCCCC21` (stereo unspecified) the “% Inhibition” value was -1% and the Z score was 0.09.
With `Clc1ccccc1-c1nc2ccccc2n1CCC1CCCCC1` the “% Inhibition” value was -9% and the Z score was 1.19.
With `C[C@H](Oc1ccc(Cl)cc1)C(=O)Nc1nc2c(s1)CCC2` the “% Inhibition” value was 3% and the Z score was -0.34.
In the case of `COC(=O)C1C2CCC(C2)C1NC(=O)Nc1nccs1` (stereo unspecified), the “% Inhibition” value is reported as 7% and the Z score is reported as -1.26.
For `O=C(NCC1CC12CCc1ccccc12)N1CCC(N2CC=CC2)C1` (stereo unspecified), the “% Inhibition” value was -13% and the Z score was 1.89.
`CC(C)CO[C@@H](C)c1noc(CN2CCC(NC(C)C)CC2)n1` was tested, and the “% Inhibition” value was 2% and the Z score was -0.27.
For `CC(=O)N1C[C@@H](COc2ccccc2)[C@H](C2CCN(C(=O)Cc3cccc(C)c3)CC2)C1`, the “% Inhibition” value was -11% and the Z score was 1.31.
With `O=C(C[C@@H](c1cccc(Cl)c1)c1ccccc1O)N[C@H]1CC[C@H](O)CC1` the “% Inhibition” value was 10% and the Z score was -1.29.
For `Cc1csc(N(C)C(=O)CCc2cncn2C)n1`, the “% Inhibition” value was -8% and the Z score was 1.26.
In the case of `Cc1nsc(C)c1C(=O)NC[C@H]1CCCCN1C(=O)c1c(C)nsc1C`, the “% Inhibition” value is reported as -6% and the Z score is reported as 0.69.
In the case of `CN(Cc1ccccc1)C(=O)[C@@H]1Cc2nc[nH]c2CN1`, the “% Inhibition” value is reported as 33% and the Z score is reported as -3.71.
With `Cc1ccc2nc(CCCNC(=O)c3cnn[nH]3)oc2c1` the “% Inhibition” value was -16% and the Z score was 1.7.
In the case of `CCCc1cc([C@@H]2CCCN2Cc2ccc(OC)c(CN3CCOCC3)c2)no1`, the “% Inhibition” value is reported as -14% and the Z score is reported as 1.9.
In the case of `CCN(C(=O)c1c(F)ccc(F)c1F)c1ccncc1`, the “% Inhibition” value is reported as 1% and the Z score is reported as -0.23.
For `O=C(COc1ccccc1)Nc1cccc(OCCn2cncn2)c1`, the “% Inhibition” value was -7% and the Z score was 0.91.
`CN1CCCC[C@H]1c1nc(-c2cccnc2Oc2ccccc2)no1` was tested, and the “% Inhibition” value was 3% and the Z score was -0.52.
With `C[C@@H](c1ccc(Cl)cc1)N(C(=O)c1cccc[n+]1[O-])C1CC1` the “% Inhibition” value was 1% and the Z score was -0.09.
For `COc1cc(N2CCN(C(=O)[C@H]3OCC[C@H]3C)CC2)cc(OC)c1OC`, the “% Inhibition” value was 0% and the Z score was 0.04.
`O=C(NC[C@H]1CCCOC1)Nc1ccc2cccnc2c1` was tested, and the “% Inhibition” value was 5% and the Z score was -0.5.
For `Cc1conc1CNc1ccc(S(C)(=O)=O)cn1`, the “% Inhibition” value was -5% and the Z score was 0.85.
For `COc1ccc(S(=O)(=O)N2CCCc3ccccc32)cn1`, the “% Inhibition” value was 0% and the Z score was -0.05.
In the case of `Cc1noc(CCCNC(=O)C(=O)Nc2ccc3c(c2)CCC3)n1`, the “% Inhibition” value is reported as -4% and the Z score is reported as 0.52.
`CC[C@H](NC(=O)CCCn1cncn1)c1nc(C)c(C)s1` was tested, and the “% Inhibition” value was 3% and the Z score was -0.53.
With `CC(C)c1ccc(NC(=O)[C@@H](c2ccc3c(c2)OCO3)N2CCC3(CC2)OCCO3)cc1` the “% Inhibition” value was -11% and the Z score was 1.63.
`Cc1nc(C)c(C(=O)NCC2CCN(C(=O)[C@H]3C[C@@H]4C=C[C@H]3C4)CC2)s1` was tested, and the “% Inhibition” value was -4% and the Z score was 0.8.
`O=C(Nc1ccc2c(c1)OC(F)(F)O2)c1cnn(-c2ccc(=O)[nH]n2)c1C(F)(F)F` was tested, and the “% Inhibition” value was -7% and the Z score was 1.11.
In the case of `Cc1cc(NC(=O)N2CCOC[C@@H]2CC2CCOCC2)c(C)cn1`, the “% Inhibition” value is reported as -13% and the Z score is reported as 2.18.
`Cc1ccc(F)c(C(=O)N[C@H]2C[C@H](c3cc(=O)[nH]cn3)C2)c1Cl` was tested, and the “% Inhibition” value was -18% and the Z score was 1.81.
In the case of `CS(=O)(=O)N1CCC(C(=O)Nc2nc(-c3ccc4c(c3)OCCO4)cs2)CC1`, the “% Inhibition” value is reported as -3% and the Z score is reported as 0.46.
With `Cn1ccc(CC(=O)N2CC[C@H](c3cccc(Cl)c3)C2)n1` the “% Inhibition” value was -5% and the Z score was 0.62.
In the case of `Cc1ccc(NS(=O)(=O)c2c(C)[nH]c(-c3nnc(C4CC4)o3)c2C)cc1C`, the “% Inhibition” value is reported as -7% and the Z score is reported as 0.96.
For `O=S(=O)(c1cccc2nsnc12)N1CC[C@H](c2ncon2)C1`, the “% Inhibition” value was 5% and the Z score was -0.83.
In the case of `O=S(=O)(CC1CCOC1)N1CCC(C(O)C(F)(F)F)CC1` (stereo unspecified), the “% Inhibition” value is reported as -14% and the Z score is reported as 1.24.
In the case of `COc1ccc(S(=O)(=O)NCc2cnn(C)c2)c2nonc12`, the “% Inhibition” value is reported as -11% and the Z score is reported as 1.3.
`Cc1nn(-c2ccccc2)c(Oc2ccccc2)c1CN(CC1CC1)C(=O)c1ccccc1Cl` was tested, and the “% Inhibition” value was 13% and the Z score was -1.29.
With `CCCC[C@H](NS(=O)(=O)c1ccc(C(=O)N2CCOCC2)cc1)C1CCC1` the “% Inhibition” value was -14% and the Z score was 2.6.
For `O=C(COc1ccccc1F)Nc1cnccc1-n1cccn1`, the “% Inhibition” value was -16% and the Z score was 2.85.
With `Cc1ccc(NCc2c[nH]cn2)c(Cl)c1C` the “% Inhibition” value was -4% and the Z score was 0.4.
For `COc1ccccc1C(=O)N1CCC[C@H](CN2CCCC2)CC1`, the “% Inhibition” value was -1% and the Z score was 0.2.
For `Cc1cc(C(=O)N2CCN[C@@H](C)C2)c2ccc(Br)cc2n1`, the “% Inhibition” value was -6% and the Z score was 0.85.
`Nc1nnc(CCn2cc(-c3cccc(Cl)c3Cl)nn2)s1` was tested, and the “% Inhibition” value was 4% and the Z score was -0.57.
With `C[C@@H](CN(C)C(=O)NCCc1cn2c(n1)CCCC2)c1nccs1` the “% Inhibition” value was -5% and the Z score was 0.78.
`O=C(NCCCn1ccnc1)c1cc(N[C@H]2C[C@@H]3CC[C@H]2C3)ccn1` was tested, and the “% Inhibition” value was 1% and the Z score was -0.11.
For `Cc1ncccc1C(=O)N1C[C@H]2CCCC(=O)N(Cc3cccc(F)c3)[C@H]2C1`, the “% Inhibition” value was 33% and the Z score was -3.77.
With `CC(C)N1CCN(c2ncc(Cl)s2)CC1=O` the “% Inhibition” value was -3% and the Z score was 0.55.
`O=C(C[C@@H]1C=CCC1)Nc1nc(-c2ccc(Cl)cc2)cs1` was tested, and the “% Inhibition” value was 34% and the Z score was -1.26.
`Cc1ccc2c(c1Br)CN(C(=O)NC[C@H]1CCCO1)C2` was tested, and the “% Inhibition” value was -13% and the Z score was 1.95.
In the case of `C=CCn1nc(C(=O)N2CCN(C)CC2)c2c1CC[C@H](NC1Cc3ccccc3C1)C2`, the “% Inhibition” value is reported as 3% and the Z score is reported as -0.54.
`COc1cc(Cl)c(C)cc1NS(=O)(=O)c1cc(-c2cnn3c(C)cc(C)nc23)ccc1OC` was tested, and the “% Inhibition” value was -13% and the Z score was 1.22.
For `O=C(CCc1cn[nH]c1)NCC[C@H]1CCCCN1C1CCCC1`, the “% Inhibition” value was -7% and the Z score was 1.22.
For `CN(Cc1ccc[nH]1)C(=O)[C@@H](O)C1CCCCCCC1`, the “% Inhibition” value was 7% and the Z score was -0.74.
With `CCn1ncc(-c2ccnc3cc(C(=O)Nc4cc(C)ccc4F)nn23)c1C` the “% Inhibition” value was -5% and the Z score was 0.82.
For `Cc1ccc(NS(=O)(=O)c2cc(C(=O)NCc3ccccn3)ccc2Cl)cc1C`, the “% Inhibition” value was 0% and the Z score was 0.06.
`COC(=O)c1ccc(CO[C@@H](CN2CCN(C(=O)c3ccc(F)cc3F)CC2)c2cccc(OC)c2)cc1` was tested, and the “% Inhibition” value was -11% and the Z score was 1.96.
In the case of `Cc1nc(-c2ccc(C(=O)NCC3(C)COC3)cc2)ccc1Cl`, the “% Inhibition” value is reported as -3% and the Z score is reported as 0.39.
With `CCn1cnc2c(c1=O)CCN([C@H]1CCCN(c3ccccc3Cl)C1=O)C2` the “% Inhibition” value was -13% and the Z score was 1.67.
In the case of `CC1COC(CO)CN1c1cc(C(F)(F)F)nc(-c2cccnc2)n1` (stereo unspecified), the “% Inhibition” value is reported as 0% and the Z score is reported as -0.05.
For `C[C@@H](C(=O)N(C)Cc1nc2ccc(F)cc2[nH]1)N(c1ccccc1)S(C)(=O)=O`, the “% Inhibition” value was -2% and the Z score was 0.39.
`CCNC(=O)N[C@@H]1CCOC[C@@H]1Nc1ccncn1` was tested, and the “% Inhibition” value was -10% and the Z score was 1.23.
With `O=C(OCc1ccccc1)[C@@H]1CCCN1C(=O)c1cnccn1` the “% Inhibition” value was -8% and the Z score was 1.4.

Source: ChEMBL document CHEMBL4888484, “Replenishing the malaria drug discovery pipeline: Screening and hit evaluation of the MMV Hit Generation Library 1 (HGL1) against asexual blood stage Plasmodium falciparum ,using a nano luciferase reporter read-out” (2022)
